Measurements as given in paper PMC12136788.
Some of the results follow.

B1: chr12:85018817:85018818:+_ENSMUSG00000010608_ENSMUST00000048155|mus_hu|FALSE|FALSE (ssRNA)
RNA: GGGAGUUCUACAGUCCGACGAUCUUCUGCUUCUUCAUCAAGUACCAUGGCAACAUCAUCUAAAAUGCUCUGGGGUGAACUAUGAGCCAUAACCUUAGAACAAACAAAAUCAACUAAUGUAGCUUCUUCUUCACCUAUAUAUUCCAACAGAGGAUUGAGCAUCA
B2: chr14:52433459:52433460:+_ENSG00000186469_ENST00000556752|hu_hu|motif|central (ssRNA)
RNA: GGGAGUUCUACAGUCCGACGAUCAAUGGUUCUCCUCGCUCUCUUCAAAUGCCGUGGACUAGAAAGGUGCCCACUUCACGGAAAACUCUACAUCAAUGUCCCAGGAGCCCGGAGGCUCUUCAGGCCCCUCUCAAAGACUUAAAGCAACAGAGGAUUGAGCAUCA
B3: chr7:66561770:66561771:+_ENSMUSG00000025326_ENSMUST00000107537|mus_hu|FALSE|FALSE (ssRNA)
RNA: GGGAGUUCUACAGUCCGACGAUCGGUACAUAACAAACAGUUCUGUCUCAAUUAUGAAAAAAAUUAAUUAAAAUAAUCCUGAAAGACAUCCUUUUUCUCCCCCCAAUGAUUUGAAAGCUGCAUUUUUCCUGCCAAUUUCAAACACAACAGAGGAUUGAGCAUCA
B4: chr2:43450610:43450611:-_ENSG00000152518_ENST00000282388|hu_mus|motif|central (ssRNA)
RNA: GGGAGUUCUACAGUCCGACGAUCGUUAAAUAGUUUUUCAUAUUGAGUUGUGGUGCAGUGGUGCGGAUCAACUCAGAACAACGGAAAAUGAAGCACUUAUUUCCCAACAACUAUGAACUGAGCUCUGCCCAUAGCUUCCAGAGACAACAGAGGAUUGAGCAUCA
B5: chr3:179287964:179287965:+_ENSG00000136518_ENST00000429709|hu_hu|hu_hu_hu_mus_True|8_28 (ssRNA)
RNA: GGGAGUUCUACAGUCCGACGAUCCUUGAGUGGUGAGAUGGCCUCCAUGUUCUCCCUGGGCACGCGGAGGGCAUUGGUGUCUAUGUAGUAGGUGGGCCCGCCCUGCUUGCCUUUAUCACCAUCAAUCUCCAUUAAUGUACUUCCCAACAGAGGAUUGAGCAUCA
B6: chr6:52962840:52962841:+_ENSG00000112146_ENST00000323557|hu_hu|FALSE|FALSE (ssRNA)
RNA: GGGAGUUCUACAGUCCGACGAUCAUAAAUAUGCUUAAGCAACUUAAUUCCAACUUAAUUUCAAAACACCCCAGGAAUCAACUAUCCCUUUAAAUAAAAAAAAUAAUCAAUUUAUAUUCUUCUUAAAAGAACUCCAACAAUUUACAACAGAGGAUUGAGCAUCA
B7: 61655584_61693606_2132_CDS_ENSG00000171316_ENST00000423902|human|control|control (ssRNA)
RNA: GGGAGUUCUACAGUCCGACGAUCAGUCAUAUCCGGCACUGGUUUCUCUAGAAAGGGCUCCGACGGGGAAUGCUGAUGCACAGGCACUUUCUGCGGGGUGUUCUGGGGUGAUGGGUGGAGCUGUGCCCAAGGCUGGUGAUGAGGCAACAGAGGAUUGAGCAUCA
B8: chr5:37680062:37680063:+_ENSMUSG00000029121_ENSMUST00000031004|mus_hu|mus_mus_mus_hu_False|28_48 (ssRNA)
RNA: GGGAGUUCUACAGUCCGACGAUCUUUGGGUGUAGCUGGUACCUCGUACACAGGACCGUCAUACAUGCCCCUGGAAACCCCUUGCAACCCGAAAACCUUAUUCCUGAUCCUGACACGCUGGUACAGGUGCUCCGGGAACGCCUUCAACAGAGGAUUGAGCAUCA
B9: chr4:124789969:124789970:+_ENSMUSG00000028863_ENSMUST00000154689|mus_mus|FALSE|FALSE (ssRNA)
RNA: GGGAGUUCUACAGUCCGACGAUCAUAAACACACACAGCCUUCCUAGAUACACAAACACACACAGCCUUCCUAGAUACACAAACACAAACACACACACACACACACACACACACACACACACACACACACACACACAGAGCCUUCAACAGAGGAUUGAGCAUCA
B10: 22862260_22862380_787_3pUTR_ENSG00000150867_ENST00000376573|human|control|control (ssRNA)
RNA: GGGAGUUCUACAGUCCGACGAUCCACAGACAAACGGUGGCUGAAUACAUUUCUUGUAACUAUCACAUAUAUUUCAACUCCAUCAACAUUAAGCCGGUACAUGCCCAAGAACUGGGGAAGAAGGGUGAUCCCAUGACAUUCCACCAACAGAGGAUUGAGCAUCA
B11: chrX:71549400:71549401:+_ENSMUSG00000019087_ENSMUST00000019231|mus_hu|mus_mus_mus_hu_False|98_98 (ssRNA)
RNA: GGGAGUUCUACAGUCCGACGAUCGCAGUAGGAAGAGCAAACCUUUCCAGUCCAGUGCGCUGCAGGGUGGGAAAGCAACAACACGGACACCGUCCCACCCUCAACCCCCCCACUGGCACAGGGUCACACAAUCUGGGUCAAAGACAACAGAGGAUUGAGCAUCA
B12: chr12:4461766:4461767:+_ENSG00000078237_ENST00000179259|hu_hu|FALSE|FALSE (ssRNA)
RNA: GGGAGUUCUACAGUCCGACGAUCCUGUAGGUUCAUACAAAUACACUGAACCGUUGGUUUAACUUCUCUUCCUUCCUCAAAGUUUAUGAUAAAGAGACUCAUCCCUGUAUUGGGAGUGACUGACAUAAGUUCAGAUCUGCUCAGCAACAGAGGAUUGAGCAUCA
B13: chr12:42180722:42180723:-_ENSMUSG00000036295_ENSMUST00000043884|mus_hu|motif|central (ssRNA)
RNA: GGGAGUUCUACAGUCCGACGAUCCUGUAGGAGAAGAAUCUGUGUGUUAGCUGGCAAUCUGGCUGGGAAAGUUAAAAGACCGGAAUCAUUACAAUCCACUGUAGAUGCUUCCAUAUAAAUGGAUCUGGGUGUAAACCAAGGCCUCAACAGAGGAUUGAGCAUCA
B14: chr2:24222969:24222970:+_ENSG00000173960_ENST00000309033|hu_hu|motif|central (ssRNA)
RNA: GGGAGUUCUACAGUCCGACGAUCAUUCUAAACAAUACAGCUAUUUAAUAUAUCUUGAUAACUGGUAUUUGAAAAUAAGUCGGUUUUUCUGGGUAGUCUUUUGGAGAAAGUGCACUGAAUAUAGUUUCCAGUCAUAUGCUACUUCAACAGAGGAUUGAGCAUCA

Biological target: T1, UNK ZnF1-3 (human, UniProt Q9C0B0 31-174)
T1 sequence: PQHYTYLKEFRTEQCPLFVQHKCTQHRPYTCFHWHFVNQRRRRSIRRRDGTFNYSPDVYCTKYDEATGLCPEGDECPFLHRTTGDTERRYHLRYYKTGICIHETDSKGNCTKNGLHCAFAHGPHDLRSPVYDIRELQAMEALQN
Experiment: nsRBNS (natural sequence RNA bind-n-seq); RBNS binding buffer (assumed for nsRBNS): 25 mM Tris pH 7.5, 150 mM KCl, 3 mM MgCl2, 0.01% Triton X-100, 500 ug/ml BSA, 20 U/ml SUPERase-In, 4 C; UNK is unkempt and MSI1 is Musashi-1; names of the RNAs are library labels; protein concentration not given here; high values mean tight binding

**Q.** B1 was tested. Which binding signal did it give?
**A.** Its binding signal is 1.39 enrichment R.

**Q.** With B2 as the binder, how does the binding signal read?
**A.** The binding signal was 1.22 enrichment R.

**Q.** Which binding signal does the source give for B3 here?
**A.** Its binding signal is 2.1 enrichment R.

**Q.** Which binding signal does the source give for B4 here?
**A.** The binding signal was 1.33 enrichment R.

**Q.** B5 was tested. Which binding signal did it give?
**A.** The binding signal was 0.797 enrichment R.

**Q.** For B6, which binding signal is on record?
**A.** Its binding signal is 0.613 enrichment R.

**Q.** How did the binding signal turn out when B7 was run?
**A.** Its binding signal is 2.38 enrichment R.

**Q.** With B8 as the binder, how does the binding signal read?
**A.** The binding signal was 0.789 enrichment R.

**Q.** How did the binding signal turn out when B9 was run?
**A.** Its binding signal is 2.49 enrichment R.

**Q.** Which binding signal does the source give for B10 here?
**A.** The binding signal was 1.27 enrichment R.

**Q.** With B11 as the binder, how does the binding signal read?
**A.** Its binding signal is 0.737 enrichment R.

**Q.** B12 was tested. Which binding signal did it give?
**A.** Its binding signal is 1.03 enrichment R.

**Q.** Which binding signal does the source give for B13 here?
**A.** Its binding signal is 1.34 enrichment R.

**Q.** For B14, which binding signal is on record?
**A.** The binding signal was 1 enrichment R.
